From PubChem BioAssay (NCATS) come the findings set out here.

Experiment [1] in a line: qHTS drug screen for cell cycle checkpoint inhibitors in PARPi-resistant BRCA-mutant ovarian cancer cell lines. (AID 1963452). Conditions: PEO1/OlaR viability, CellTiter-Glo luminescence, 96 h. The gist of the method: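 PEO1, PEO4 and PEO1/OlaR ovarian cancer cells, 600 per well, exposed 96 h at 37C to a dilution series. Viability read by CellTiter-Glo luminescence, normalized to DMSO and empty wells; activity summarized as Z-AUC.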
In general terms: qHTS replaces the single test concentration by a dilution series.

A short description of experiment [2]: qHTS for identification of novel therapeutic agents for treatment of microphthalmiaassociated transcription factor (MiT) renal cell carcinoma (RCC) (AID 1963991). Conditions: CellTiter-Glo, 48 h; for z-score: stronger effect = lower value. In a few lines: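 Three TFE3-fusion RCC lines (UOK109, UOK124, UOK145), 500 cells/well in complete medium, were treated with MIPE 4.0 compounds for 48 hours at 37 C. Viability was by CellTiter-Glo luminescence, normalized to DMSO (100%) and empty wells (0%); curves fitted over 11 concentrations.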

Setting [3] is: measured here: PEO1 parental viability.
Setting [4] is: TFE3-RCC UOK109 viability, measured here: UOK109 Z-AUC.
The mark [5] stands for this setting: TFE3-RCC viability, measured here: UOK124 Z-AUC.
The mark [6] stands for this setting: TFE3-RCC viability, measured here: UOK124 cell viability.
Setting [7] is: TFE3-RCC viability, measured here: UOK145 Z-AUC.
The mark [8] stands for this setting: TFE3-RCC viability, measured here: UOK145 cell viability.

The other results are listed elsewhere or left out. Further columns of the screen follow, without active or inactive calls. For some assays here: Compounds called inactive in the main read-out are mostly missing here. Words in brackets tell the shape of the fitted curve; partial curves, single points and poor fits give uncertain potencies.
Tags tell the direction and shape of the fitted curve.

For orientation: AC50 means the concentration giving half of the maximal activity seen. With `c1cncc(CN2CCC(n3ncc4c(N5CCOCC5)nc(-c5ccc6[nH]ccc6c5)nc43)CC2)c1`, the AC50 in experiment [1] (setting [3]) was 1.74 µM [falling, full curve, poor fit]; in experiment [1] (measured here: PEO4 viability), 6.16 µM [falling, partial curve]; in experiment [2] (setting [6]), 10.5 µM [falling, partial curve]; in experiment [2] (setting [8]), 5.26 µM [falling, partial curve]. The z-score was -0.757 in experiment [2] (setting [4]), -2.81 in experiment [2] (setting [5]) and -1.36 in experiment [2] (setting [7]).

Turning to `COc1cc(C)c(Sc2cnc(NC(=O)c3ccc(CNC(C)C(C)C)cc3)s2)cc1C(=O)N1CCN(C(C)=O)CC1` (configuration not stated), the AC50 in experiment [1] (setting [3]) was 13.8 µM [falling, partial curve]; in experiment [1] (measured here: PEO4 viability) it was 13.8 µM [falling, partial curve]; in experiment [2] (setting [6]), 16.6 µM [falling, partial curve]; in experiment [2] (setting [8]), 23.5 µM [falling, partial curve]. The z-score in experiment [2] (setting [4]) is 1.05; in experiment [2] (setting [5]), -0.695; in experiment [2] (setting [7]), -0.524.

`CCOc1cc2c(c(F)c1OCC)C(=N)N(CC(=O)c1cc(N3CCOCC3)c(OC)c(C(C)(C)C)c1)C2`: the AC50 is 11 µM [falling, partial curve, poor fit] in experiment [1] (setting [3]); 17.4 µM [falling, single point] in experiment [1] (measured here: PEO4 viability); 14.8 µM [falling, partial curve] in experiment [2] (setting [6]); 13.2 µM [falling, partial curve] in experiment [2] (setting [8]). Moreover, the z-score in experiment [2] (setting [4]) is 0.705; in experiment [2] (setting [5]), -0.737; in experiment [2] (setting [7]), -0.357.

For `CC(C)C(=O)Nc1ncc(-c2cc(C(F)F)nn2-c2c(Cl)cccc2Cl)s1`, the AC50 in experiment [1] (setting [3]) is 24.5 µM [falling, single point]; in experiment [1] (measured here: PEO4 viability) it was 24.5 µM [falling, single point]; in experiment [2] (setting [6]) it was 18.7 µM [falling, partial curve]; in experiment [2] (setting [8]), 33.2 µM [falling, single point]. Besides, the z-score in experiment [2] (setting [4]) was -0.158; in experiment [2] (setting [5]) it was -0.264; in experiment [2] (setting [7]) it was -0.442.

Consider `COc1cc2c(Oc3ccc(-c4cnc(Nc5ccc(F)cc5)n(C)c4=O)cc3F)ccnc2cc1OCCCN1CCOCC1`, for which the concentration at half-maximal activity (AC50) in experiment [1] (setting [3]) was 6.16 µM [falling, partial curve]; in experiment [1] (measured here: PEO4 viability), 5.49 µM [falling, partial curve]; in experiment [2] (setting [6]), 18.7 µM [falling, partial curve]; in experiment [2] (setting [8]), 18.7 µM [falling, partial curve]. The z-score in experiment [2] (setting [4]) came out at 0.402; in experiment [2] (setting [5]), 0.0365; in experiment [2] (setting [7]), 0.0576.

Regarding `C[C@@H]1COC(Nc2ccc3ncnc(Nc4ccc(OCc5nccs5)c(Cl)c4)c3c2)=N1`, the AC50 in experiment [1] (setting [3]) was 6.92 µM [falling, partial curve]; in experiment [1] (measured here: PEO4 viability), 7.76 µM [falling, partial curve]; in experiment [2] (setting [6]), 23.5 µM [falling, partial curve]; in experiment [2] (setting [8]), 4.69 µM [falling, full curve]. Moreover, the z-score is -1.87 in experiment [2] (setting [4]), -0.245 in experiment [2] (setting [5]) and -1.26 in experiment [2] (setting [7]).

On to `COc1cc2c(Nc3ccc(NC(=O)c4ccccc4)cc3)ncnc2cc1OCCCN1CCOCC1`, for which the AC50 was 17.4 µM [falling, single point] in experiment [1] (setting [3]); 9.77 µM [falling, partial curve] in experiment [1] (measured here: PEO4 viability); 18.7 µM [falling, partial curve] in experiment [2] (setting [6]); 20.9 µM [falling, partial curve] in experiment [2] (setting [8]). Besides, the z-score in experiment [2] (setting [4]) is 0.329; in experiment [2] (setting [5]), -0.139; in experiment [2] (setting [7]), -0.452.

Take `COC(=O)Nc1ccc(-c2nc(N3CCOCC3)c3cnn(C4CCN(C(=O)OC)CC4)c3n2)cc1`: the AC50 in experiment [1] (setting [3]) was 0.871 µM [falling, full curve]; in experiment [1] (measured here: PEO4 viability), 0.616 µM [falling, full curve]; in experiment [2] (setting [6]) it was 4.18 µM [falling, full curve]; in experiment [2] (setting [8]), 1.87 µM [falling, full curve]. Further, the z-score is -1.83 in experiment [2] (setting [4]), -0.0771 in experiment [2] (setting [5]) and -2.49 in experiment [2] (setting [7]).

Take `CCc1cccc(CC)c1NC(=O)N1Cc2[nH]nc(NC(=O)c3ccc(N4CCN(C)CC4)cc3)c2C1`: the half-maximal activity concentration (AC50) in experiment [1] (setting [3]) was 9.77 µM [falling, partial curve]; in experiment [1] (measured here: PEO4 viability), 0.549 µM [falling, full curve]; in experiment [2] (setting [6]), 14.8 µM [falling, partial curve]; in experiment [2] (setting [8]) it was 26.4 µM [falling, single point]. In addition, the z-score was 0.893 in experiment [2] (setting [4]), -0.11 in experiment [2] (setting [5]) and 0.422 in experiment [2] (setting [7]).

`CC(=O)Nc1ccc([C@H](C)C(=O)Nc2ncc(C(C)C)s2)cc1`: the AC50 in experiment [1] (setting [3]) is 1.95 µM [falling, full curve]; in experiment [1] (measured here: PEO4 viability) it was 3.47 µM [falling, full curve]; in experiment [2] (setting [6]), 5.26 µM [falling, full curve]; in experiment [2] (setting [8]) it was 1.87 µM [falling, full curve]. The figures for the z-score in experiment [2] (setting [4]), in experiment [2] (setting [5]) and in experiment [2] (setting [7]) were -0.889, -0.577 and -0.766, respectively.

For the compound `Cc1ccc(C(=O)Nc2ccc(CN3CCN(C)CC3)c(C(F)(F)F)c2)cc1C#Cc1cnc2cccnn12`, the half-maximal activity concentration (AC50) in experiment [1] (setting [3]) was 1.1 µM [falling, partial curve]; in experiment [1] (measured here: PEO4 viability), 3.09 µM [falling, full curve]; in experiment [2] (setting [6]), 3.32 µM [falling, full curve]; in experiment [2] (setting [8]) it was 3.32 µM [falling, partial curve]. The z-score in experiment [2] (setting [4]) was -0.611; in experiment [2] (setting [5]) it was -1.61; in experiment [2] (setting [7]), -0.955.
